Positions count from the first letter of the chain named. This is one part of the list.

B1: GUCACGU (DNA:RNA)
RNA: GGGAGACCGGAAUUCAGAUUGUCCGUCACGUUUAAAUCCCGUCGUAGCCACCA
DNA 1: CAATCTGAATTCCGGTCTCCC
DNA 2: TGGTGGCTACGACGGGATT
B2: UAGCACA (DNA:RNA)
RNA: GGGAGACCGGAAUUCAGAUUGUCCUAGCACAUUAAAUCCCGUCGUAGCCACCA
DNA 1: CAATCTGAATTCCGGTCTCCC
DNA 2: TGGTGGCTACGACGGGATT
B3: CGAUUUA (DNA:RNA)
RNA: B2 RNA with U25C, A26G, G27A, C28U, A29U, C30U
DNA 1: CAATCTGAATTCCGGTCTCCC
DNA 2: TGGTGGCTACGACGGGATT
B4: AUUAAGC (DNA:RNA)
RNA: B1 RNA with G25A, C27U, C29A, U31C
DNA 1: CAATCTGAATTCCGGTCTCCC
DNA 2: TGGTGGCTACGACGGGATT
B5: UAGUAGC (DNA:RNA)
RNA: B2 RNA with C28U, C30G, A31C
DNA 1: CAATCTGAATTCCGGTCTCCC
DNA 2: TGGTGGCTACGACGGGATT
B6: UAGGCGG (DNA:RNA)
RNA: B2 RNA with C28G, A29C, C30G, A31G
DNA 1: CAATCTGAATTCCGGTCTCCC
DNA 2: TGGTGGCTACGACGGGATT
B7: GGUAAUA (DNA:RNA)
RNA: B1 RNA with U26G, C27U, C29A, G30U, U31A
DNA 1: CAATCTGAATTCCGGTCTCCC
DNA 2: TGGTGGCTACGACGGGATT
B8: AAACUGG (DNA:RNA)
RNA: B2 RNA with U25A, G27A, A29U, C30G, A31G
DNA 1: CAATCTGAATTCCGGTCTCCC
DNA 2: TGGTGGCTACGACGGGATT
B9: UGUAACA (DNA:RNA)
RNA: B2 RNA with A26G, G27U, C28A
DNA 1: CAATCTGAATTCCGGTCTCCC
DNA 2: TGGTGGCTACGACGGGATT
B10: AUACAUC (DNA:RNA)
RNA: B2 RNA with U25A, A26U, G27A, C30U, A31C
DNA 1: CAATCTGAATTCCGGTCTCCC
DNA 2: TGGTGGCTACGACGGGATT
B11: AGAGUUA (DNA:RNA)
RNA: B2 RNA with U25A, A26G, G27A, C28G, A29U, C30U
DNA 1: CAATCTGAATTCCGGTCTCCC
DNA 2: TGGTGGCTACGACGGGATT
B12: UAAGAUU (DNA:RNA)
RNA: B2 RNA with G27A, C28G, C30U, A31U
DNA 1: CAATCTGAATTCCGGTCTCCC
DNA 2: TGGTGGCTACGACGGGATT
B13: GGCCUUG (DNA:RNA)
RNA: B1 RNA with U26G, A28C, C29U, G30U, U31G
DNA 1: CAATCTGAATTCCGGTCTCCC
DNA 2: TGGTGGCTACGACGGGATT
B14: GCUCACU (DNA:RNA)
RNA: B2 RNA with U25G, A26C, G27U, A31U
DNA 1: CAATCTGAATTCCGGTCTCCC
DNA 2: TGGTGGCTACGACGGGATT
B15: UGAACUG (DNA:RNA)
RNA: B1 RNA with G25U, U26G, C27A, G30U, U31G
DNA 1: CAATCTGAATTCCGGTCTCCC
DNA 2: TGGTGGCTACGACGGGATT
B16: CUUUUCG (DNA:RNA)
RNA: B1 RNA with G25C, C27U, A28U, C29U, G30C, U31G
DNA 1: CAATCTGAATTCCGGTCTCCC
DNA 2: TGGTGGCTACGACGGGATT
B17: GACGCUG (DNA:RNA)
RNA: B1 RNA with U26A, A28G, G30U, U31G
DNA 1: CAATCTGAATTCCGGTCTCCC
DNA 2: TGGTGGCTACGACGGGATT
B18: GAUAAAA (DNA:RNA)
RNA: B2 RNA with U25G, G27U, C28A, C30A
DNA 1: CAATCTGAATTCCGGTCTCCC
DNA 2: TGGTGGCTACGACGGGATT
B19: UAGCCUC (DNA:RNA)
RNA: B2 RNA with A29C, C30U, A31C
DNA 1: CAATCTGAATTCCGGTCTCCC
DNA 2: TGGTGGCTACGACGGGATT
B20: UAAUAGG (DNA:RNA)
RNA: B2 RNA with G27A, C28U, C30G, A31G
DNA 1: CAATCTGAATTCCGGTCTCCC
DNA 2: TGGTGGCTACGACGGGATT
B21: GCCUCGU (DNA:RNA)
RNA: B1 RNA with U26C, A28U
DNA 1: CAATCTGAATTCCGGTCTCCC
DNA 2: TGGTGGCTACGACGGGATT
B22: GUAGUGG (DNA:RNA)
RNA: B1 RNA with C27A, A28G, C29U, U31G
DNA 1: CAATCTGAATTCCGGTCTCCC
DNA 2: TGGTGGCTACGACGGGATT
B23: CAAACCG (DNA:RNA)
RNA: B1 RNA with G25C, U26A, C27A, G30C, U31G
DNA 1: CAATCTGAATTCCGGTCTCCC
DNA 2: TGGTGGCTACGACGGGATT
B24: ACAUCCC (DNA:RNA)
RNA: B1 RNA with G25A, U26C, C27A, A28U, G30C, U31C
DNA 1: CAATCTGAATTCCGGTCTCCC
DNA 2: TGGTGGCTACGACGGGATT
B25: CCAAGAG (DNA:RNA)
RNA: B1 RNA with G25C, U26C, C27A, C29G, G30A, U31G
DNA 1: CAATCTGAATTCCGGTCTCCC
DNA 2: TGGTGGCTACGACGGGATT
B26: UCCACAA (DNA:RNA)
RNA: B1 RNA with G25U, U26C, G30A, U31A
DNA 1: CAATCTGAATTCCGGTCTCCC
DNA 2: TGGTGGCTACGACGGGATT
B27: AUGAGUU (DNA:RNA)
RNA: B1 RNA with G25A, C27G, C29G, G30U
DNA 1: CAATCTGAATTCCGGTCTCCC
DNA 2: TGGTGGCTACGACGGGATT
B28: UUGUAGA (DNA:RNA)
RNA: B2 RNA with A26U, C28U, C30G
DNA 1: CAATCTGAATTCCGGTCTCCC
DNA 2: TGGTGGCTACGACGGGATT
B29: AAUAUGC (DNA:RNA)
RNA: B1 RNA with G25A, U26A, C27U, C29U, U31C
DNA 1: CAATCTGAATTCCGGTCTCCC
DNA 2: TGGTGGCTACGACGGGATT
B30: CUCUAGU (DNA:RNA)
RNA: B1 RNA with G25C, A28U, C29A
DNA 1: CAATCTGAATTCCGGTCTCCC
DNA 2: TGGTGGCTACGACGGGATT
B31: UUGGACC (DNA:RNA)
RNA: B2 RNA with A26U, C28G, A31C
DNA 1: CAATCTGAATTCCGGTCTCCC
DNA 2: TGGTGGCTACGACGGGATT

The target of the experiment is T1, RBFOX1 RRM RbFoxmut (Fox-RRM*) (Homo sapiens, UniProt Q9NWB1 109-208, R118D;E147R;N151S;E152T).
T1 sequence: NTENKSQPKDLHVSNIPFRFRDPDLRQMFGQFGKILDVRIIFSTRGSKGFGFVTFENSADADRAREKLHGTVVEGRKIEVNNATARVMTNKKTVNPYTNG
Put plainly: EMSA; HiTS-Eq, 1 nM pool, 10 min; buffer printed only for the single-RNA assays: 10 mM Tris pH 7.5, 150 mM NaCl, 3.4 mM EDTA, 0.001% NP-40, 30 C. The conditions noted are these: tags: His6 N-terminal (pET28a); label: 5' 32P. In short, it runs like this:
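A pool of RNA with 7 randomized nucleotides, 5′-radiolabelled and with DNA-annealed flanks, was equilibrated at 1 nM for 10 min in 50 µL with purified RbFox RRM, wild type or mutant, across increasing protein concentrations. Free RNA was separated by 8% native PAGE, excised, reverse-transcribed, barcoded by PCR and sequenced. Relative association constants were obtained from read-count changes of each RNA species versus the control reaction and normalised to the cognate motif.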
As for B1, the binding signal was 0.12 KA relative to UGCAUGU.
The result for B2 reads 0.0689 KA relative to UGCAUGU; that for B3, 0.101 KA relative to UGCAUGU; that for B4, 0.0979 KA relative to UGCAUGU.
As for B5, the binding signal was 0.0837 KA relative to UGCAUGU.
The value for B6 was 0.111 KA relative to UGCAUGU; that for B7 was 0.0761 KA relative to UGCAUGU; that for B8 was 0.0705 KA relative to UGCAUGU.
As for B9, the binding signal was 0.0864 KA relative to UGCAUGU.
The result for B10 reads 0.0828 KA relative to UGCAUGU; that for B11, 0.154 KA relative to UGCAUGU; that for B12, 0.0681 KA relative to UGCAUGU.
The result for B13 reads 0.478 KA relative to UGCAUGU; that for B14, 0.0649 KA relative to UGCAUGU.
B15: the binding signal was 0.0738 KA relative to UGCAUGU.
The result for B16 reads 0.092 KA relative to UGCAUGU.
The result for B17 reads 0.0687 KA relative to UGCAUGU.
Turning to B18, the binding signal is 0.0514 KA relative to UGCAUGU.
The result for B19 reads 0.0891 KA relative to UGCAUGU; that for B20, 0.076 KA relative to UGCAUGU; that for B21, 0.224 KA relative to UGCAUGU.
The value for B22 was 0.108 KA relative to UGCAUGU; that for B23 was 0.0853 KA relative to UGCAUGU; that for B24 was 0.0641 KA relative to UGCAUGU.
As to B25, the binding signal is 0.127 KA relative to UGCAUGU.
The result for B26 reads 0.061 KA relative to UGCAUGU; that for B27, 0.132 KA relative to UGCAUGU.
The result for B28 reads 0.142 KA relative to UGCAUGU; that for B29, 0.0929 KA relative to UGCAUGU.
The result for B30 reads 0.133 KA relative to UGCAUGU.
On to B31, for which the binding signal is 0.0605 KA relative to UGCAUGU.
